Experimental data published in PubChem BioAssay AID938 (National Center for Advancing Translational Sciences (NCATS), 2007).
Values joined by “and” are separate entries in the source; they are usually repeats but may differ in a detail not shown here. Identical values can stand only once. About 1,800 (2.5%) of roughly 73,000 compounds were called active. About 13% were inconclusive and are not listed. The call rests on the fitted dose curve; in most records, active means well fitted activation curve with a large enough effect; inconclusive means small, poorly fitted or top-dose-only effect; inactive means no such curve, though single readings can be large or run the other way. This is a selection; strong and weak results do not stand in their true shares. Some structures have more than one record in an assay (separate samples or runs), and their calls can disagree.

Assay: qHTS Assay for Agonists of the Thyroid Stimulating Hormone Receptor: Activators of Intracellular cAMP Concentrations in Parental HEK 293; further: nearly all actives have a fitted effect of over 55% in size; on activation: % of control where 0% means no effect
Details: parental HEK293 CNG cAMP sensor, membrane potential fluorescence; series mostly up to 57.1 µM; activation: at the top concentration
Outline: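 Parental HEK 293 cells stably expressing a modified CNG channel (no TSHR) report cAMP rise as membrane depolarization. Membrane potential dye with 100 uM RO 20-1724 was loaded for 60 min at room temperature, then compound added for 30 min; fluorescence read at 590 nm.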
Potency means the concentration at half of the fitted maximal effect.

SMILES | activation | Potency
COc1ccc(-c2oc3ncn(CCN4CCOCC4)c(=N)c3c2-c2ccc(OC)cc2)cc1 | inactive: -32.9% | 
C=C1CC[C@@H](O)C/C1=C/C=C1\CCC[C@]2(C)[C@@H]1CC[C@H]2[C@@H](C)/C=C\[C@@H](C)C(C)C | inactive: 2.69% | 
COC(=O)[C@@]1(Cc2ccc(F)cc2)[C@H]2c3cc(C(=O)N(C)C)n(Cc4ccsc4Br)c3C[C@H]2CN1C(=O)c1ccccc1 |  | active: 3.98 µM
OC[C@H]1O[C@@H]2O[C@H]3[C@H](O)[C@@H](O)[C@@H](O[C@H]4[C@H](O)[C@@H](O)[C@@H](O[C@H]5[C@H](O)[C@@H](O)[C@@H](O[C@H]6[C@H](O)[C@@H](O)[C@@H](O[C@H]7[C@H](O)[C@@H](O)[C@@H](O[C@H]8[C@H](O)[C@@H](O)[C@@H](O[C@H]1[C@H](O)[C@H]2O)O[C@@H]8CO)O[C@@H]7CO)O[C@@H]6CO)O[C@@H]5CO)O[C@@H]4CO)O[C@@H]3CO | inactive: -4.77% | 
COc1ccccc1N1CCN(C(c2cccs2)c2nnnn2C2CCCC2)CC1 (stereo unspecified) |  | active: 12.6 µM
CCCCCCOc1cccc(N)c1 | inactive: -32.8% | 
O=C(c1ccc(Br)s1)N1CCN(Cc2ccc3c(c2)OCO3)CC1 | inactive: 64% | 
CN1CCC(=C2c3ccccc3CC(=O)c3sccc32)CC1 |  | inactive
COC(=O)c1ccccc1O | inactive: -5.88% | 
COc1ccc2[nH]c3ccc(OC)cc3c2c1 | inactive: -53.2% | 
Nc1ccccc1O | inactive: -40.3% | 
CCOCCCn1c(=N)c(C(=O)NCc2ccc3c(c2)OCO3)cc2c(=O)n3ccccc3nc21 | inactive: -122% | 
Cc1c(N(C)C)nc2ccccc2c1N | inactive: -41.5% | 
CCOC(=O)c1ccc(NC(=O)CSc2nc3c(c(=O)n2C)SC(C)C3)cc1 (stereo unspecified) |  | active: 20 µM
CCN1C(=O)/C(=C2/Sc3ccc(OC)cc3N2C)SC1=Nc1cccc(O)c1 | inactive: -39.8% | 
Cc1cccc([C@@H]2CN(C)CCc3c2cc(O)c(O)c3Cl)c1 |  | active: 25.1 µM
COC(=O)c1[nH]c2ccccc2c1NC(=O)CN1CCN(C/C=C/c2ccccc2)CC1 | inactive: -60.6% | 
COC(=O)c1ccc(CSc2nc(-c3ccccc3)cs2)o1 |  | active: 39.8 µM
Cc1cc(NCCOCCO)n2ncc(-c3ccc(Cl)cc3)c2n1 | inactive: -31% | 
CC(C)=CCC/C(C)=C/COc1c2ccoc2cc2oc(=O)ccc12 |  | active: 12.6 µM
O=C(CSc1nnc(COc2ccccc2)n1Cc1ccco1)c1ccc(F)cc1 |  | active: 15.8 µM
Cc1nc2cnc(Oc3ccccc3)nc2n(CCc2ccccc2)c1=O |  | active: 1.58 µM
O=[N+]([O-])c1ccc(Cl)cc1Cl | inactive: 14.2% | 

SMILES | activation | Potency
COC(=O)C1(C)Nc2ccccc2C(=O)N1c1ccccc1OC (stereo unspecified) | inactive: 24.4% | 
Cc1ccc(NC(=O)Cn2cccc2)cc1Cl | inactive: 1.25% | 
O=C1CCCN1c1ccc(S(=O)(=O)N2CCN(c3ccccn3)CC2)cc1 | inactive: 0.758% | 
COc1cc(Nc2nc(SCC#N)nc3ccccc23)cc(OC)c1OC | inactive: -43.5% | 
Cc1ccc(/C=C/C2=Cc3c(sc(NC(=O)CSc4n[nH]c(N)n4)c3C#N)C(C)(C)C2)o1 | inactive: -6.22% | 
N=C1C(c2ccc(Br)cc2)=C(O)C2CCc3ccccc3N12 (stereo unspecified) | inactive: -64.8% | 
COc1cc(Cc2cnc(N)nc2N)cc(OC)c1OC |  | inactive
CCC(C)(C)n1nnnc1C(c1cccs1)N1CCN(Cc2ccccc2)CC1 (stereo unspecified) |  | active: 12.6 µM
CC1CCC2C(=O)OC(CN=[N+]=[N-])CN2C1c1ccc(Br)cc1 (stereo unspecified) | inactive: -3.42% [at 11.4 µM] and inactive: 14.2% [at 11.4 µM] and inactive: -1.14% [at 11.4 µM] | 
CCCCOC(=O)c1ccc(N)cc1 | inactive: -14% [at 25.6 µM] | 
O=C(Nc1ccc2c(c1)OCO2)c1nn(-c2ccccc2)c(=O)c2ccccc12 |  | active: 25.1 µM
N#Cc1c(/N=C/N2CCCC2)oc(-c2ccccc2)c1-c1ccccc1 | inactive: 9.01% | 
CCN(CC)CCNC(=O)CS(=O)Cc1nc(-c2ccccc2Cl)oc1C (stereo unspecified) | inactive: 8.68% | 
Cc1cc2oc(=O)cc(CN3CCC(C)CC3)c2cc1Cl |  | active: 25.1 µM
COC(=O)[C@@]1(Cc2ccc(F)cc2)[C@H]2c3cc(C(=O)N4CCCC4)n(Cc4cc(C)n(C)n4)c3C[C@H]2CN1C(=O)c1ccccc1 |  | active: 15.8 µM
C[C@]1(C(=O)NCc2cc(F)cc(C(F)(F)F)c2)C=C[C@@H](Cc2ccccc2)N1C(=O)c1ccccc1 |  | active: 15.8 µM
N#C/C(C(N)=O)=c1/ccc2c(c1)N1C3=C(CCCC3)CC3CCCCC31N=2 (stereo unspecified) | inactive: -106% | 
O=C(C1CCC(CNc2c(N3CCCCC3)c(=O)c2=O)CC1)N1CCCCC1 (stereo unspecified) | inactive: 25.7% | 
COc1ccc(CNc2nc3c(c(=O)n(Cc4ccc(Br)cc4)c(=O)n3C)n2C)cc1 | inactive: -36.6% | 
c1ccc(-n2nnnc2SCc2cn3ccccc3n2)cc1 | inactive: 3.16% | 
COC(=O)c1cc(CSc2nc3ccc(C)cc3[nH]2)oc1C |  | active: 20 µM
COc1ccc(CCn2c(=N)c(C(=O)NCc3ccco3)cc3c(=O)n4cccc(C)c4nc32)cc1 | inactive: -52.4% | 
CN[C@@H](CC(C)C)C(=O)N[C@@H]1C(=O)N[C@H](CC(N)=O)C(=O)N[C@@H]2C(=O)N[C@H]3C(=O)N[C@H](C(=O)N[C@H](C(=O)O)c4cc(O)cc(O)c4-c4cc3ccc4O)[C@H](O)c3ccc(c(Cl)c3)Oc3cc2cc(c3O[C@H]2O[C@@H](CO)[C@@H](O)[C@@H](O)[C@@H]2O[C@@H]2C[C@](C)(N)[C@H](O)[C@H](C)O2)Oc2ccc(cc2Cl)[C@@H]1O | inactive: -10.3% [at 25.6 µM] | 

SMILES | activation | Potency
Cc1c(N=Cc2ccc(-c3ccc(Cl)cc3)o2)c(=O)n(-c2ccccc2)n1C | inactive: -36.6% | 
CCOC(=O)c1c(C)c(C(=O)Nc2cc(F)ccc2F)c(C)n1C |  | active: 7.94 µM
CCOc1cccc(NC(=O)C2CC(=O)N(C)C(=Nc3cccc(F)c3)S2)c1 (stereo unspecified) | inactive: -30.9% | 
O=C(c1cc(C(F)(F)F)cc(C(F)(F)F)c1)N1CCC2(CCCN(c3ccccn3)C2)CC1 |  | active: 25.1 µM
CCc1c2c(nc3cccc(OC)c13)OC(CC)C2 (stereo unspecified) |  | active: 15.8 µM
Cc1c(C(=O)O)cccc1[N+](=O)[O-] | inactive: 0.384% | 
NCCNC(=O)c1ccc(Cl)cc1 | inactive: 0.0319% | 
COC(=O)[C@@]1(Cc2ccccc2)[C@H]2c3cc(C(=O)N4CCCC4)n(CCc4ccccn4)c3C[C@H]2CN1C(=O)c1ccccc1 |  | active: 15.8 µM
Cc1ccccc1CSc1nc2n(n1)C(c1cccs1)C1=C(CCCC1=O)N2 (stereo unspecified) | inactive: 5.39% | 
CC(=O)O[C@@H](C)C[N+](C)(C)C | inactive: 11.4% [at 25.6 µM] | 
COc1ccc2c(c1)c(C(O)CN1CCN(Cc3ccc4c(c3)OCO4)CC1)c(C)n2C (stereo unspecified) | inactive: -66.8% | 
CCSC1=C(C#N)C(=O)n2c1cc1c2CCCC1 | inactive: -85.8% | 
COc1ccc(-c2cc(C(F)(F)F)n3ncc(C(=O)NCC4CCCO4)c3n2)cc1 (stereo unspecified) |  | active: 10 µM
Cn1c(-c2ccc3c(c2)OCO3)cnc1NCc1cccc(Cl)c1 | inactive: -74.5% | 
CC(C)(C)NC(=O)C(c1ccco1)N(Cc1ccc2c(c1)OCO2)C(=O)Cn1nnc2ccccc21 (stereo unspecified) |  | active: 15.8 µM
CN(C)CCCn1c2c3ccccc3ccc2c2oc(=O)c3ccccc3c21 | inactive: -45.2% [at 11.4 µM] | 
O=C(c1cc(C(F)(F)F)cc(C(F)(F)F)c1)N1CCC2(CCCN(c3ccncc3)C2)CC1 |  | active: 7.94 µM
COCCNCC(=O)C12CC3CC(CC(C3)C1)C2 | inactive: 44.7% | 
c1ccc(CN(CC2=NCCN2)c2ccccc2)cc1 | inactive: 11.9% [at 25.6 µM] | 
Cc1cc(NC(=O)Cc2cn3ccsc3n2)n(-c2ccccc2)n1 | inactive: -0.588% | 
Cc1cccc(NC(=O)c2cc3ccccc3o2)c1 |  | active: 25.1 µM
O=c1oc2ccc3ccccc3c2cc1-c1nnc(-c2ccccc2)o1 | inactive: -38.5% | 
C=CC(=O)OCCCCCCOC(=O)C=C | inactive: 17.5% | 

SMILES | activation | Potency
CCOC(=O)c1c(NC(=O)Cc2cccs2)sc(C)c1C |  | active: 25.1 µM
CC1=CC(=O)CC(C)(C)C1(O)/C=C/C(C)=C\C(=O)O (stereo unspecified) | inactive: -23.7% | 
CC(=O)Nc1ccc(S(=O)(=O)N2CCN(c3nc(NC4CCCC4)c4ccccc4n3)CC2)cc1 | inactive: -53.3% [at 11.4 µM] | 
O=C(CSc1ccc2nnc(-c3cccnc3)n2n1)NCc1ccco1 | inactive: -8.78% | 
COc1cc(NC(=O)Nc2ccccc2OC)c(OC)cc1NC(=O)CN1CCCCC1 | inactive: -39% | 
CCC(C(=O)NC1CCCC1)N(C(=O)c1snc(C(N)=O)c1N)c1ccc2c(c1)OCCO2 (stereo unspecified) |  | active: 25.1 µM
CC(=O)c1ccccc1OCC(O)CN1CCN(C(c2ccccc2)c2ccccc2)CC1 (stereo unspecified) | inactive: -65.2% | 
COCC(=O)Nc1ccccc1NC(C)=O | inactive: 1.31% | 
CN(Cc1cnc2nc(N)nc(N)c2n1)c1ccc(C(=O)N[C@@H](CCC(=O)O)C(=O)O)cc1 | inactive: -5.32% | 
COc1ccc(C)c(Cn2c(-c3nonc3N)nc3ccccc32)c1 |  | active: 25.1 µM
Fc1ccc(OCc2nc(-c3ccc(Br)o3)no2)c(F)c1 |  | active: 2.51 µM
CC(C)c1ccc(Cn2ccc3c4c(N)nc(NC5CC5)nc4ccc32)cc1 | inactive: -54.6% | 
O=c1[nH]c(=O)n([C@H]2C[C@H](O)[C@@H](CO)O2)cc1Br | inactive: 12% | 
COc1ccccc1N1CCN(C(=O)c2ccc(CS(=O)(=O)c3ccccc3OC)o2)CC1 | inactive: -37% | 
CCn1c(=NC(=O)CSC(C)=O)sc2cc(F)ccc21 | inactive: -31.8% | 
Oc1ccc(-c2nc3ncccn3c2Nc2ccc3c(c2)OCCO3)cc1 | inactive: -40.3% | 
CCCN1C[C@H](CSC)C[C@H]2c3cccc4[nH]cc(c34)C[C@@H]21 | inactive: 5.25% | 
Clc1ccc(N2CCN(Cc3c[nH]c4ncccc34)CC2)cc1 | inactive: 11.7% | 
CN(C)c1ccc(C(=C2C=CC(=[N+](C)C)C=C2)c2ccc(N(C)C)cc2)cc1 | inactive: -39.6% | 
CC(C)c1ccc2c(c1)c(SC(C)(C)C)c(CC(C)(C)C(=O)O)n2Cc1ccc(Cl)cc1 | inactive: -3.64% | 
Cc1nn(-c2nc3ccccc3s2)c(C)c1Oc1ccccc1O | inactive: -35.3% | 
Nc1nc(N2CCN(C/C=C/c3ccccc3)CC2)nc2ccccc12 | inactive: -42.5% | 
